Measurements taken from publication PMC4336329 (PLoS ONE, 2015).
The whole screen tested about 310,000 compounds, of which about 2,200 (0.71%) showed an effect of 50% or more. Effects have a minus sign here. The list shows a part of the results.

What follows are compounds tested against human ether-à-go-go-related gene (hERG) potassium channel (human, UniProt Q12809) (assay: primary screen, population patch clamp on CHO cells stably expressing hERG).
Sequence of human ether-à-go-go-related gene (hERG) potassium channel (Q12809 whole entry, looked up): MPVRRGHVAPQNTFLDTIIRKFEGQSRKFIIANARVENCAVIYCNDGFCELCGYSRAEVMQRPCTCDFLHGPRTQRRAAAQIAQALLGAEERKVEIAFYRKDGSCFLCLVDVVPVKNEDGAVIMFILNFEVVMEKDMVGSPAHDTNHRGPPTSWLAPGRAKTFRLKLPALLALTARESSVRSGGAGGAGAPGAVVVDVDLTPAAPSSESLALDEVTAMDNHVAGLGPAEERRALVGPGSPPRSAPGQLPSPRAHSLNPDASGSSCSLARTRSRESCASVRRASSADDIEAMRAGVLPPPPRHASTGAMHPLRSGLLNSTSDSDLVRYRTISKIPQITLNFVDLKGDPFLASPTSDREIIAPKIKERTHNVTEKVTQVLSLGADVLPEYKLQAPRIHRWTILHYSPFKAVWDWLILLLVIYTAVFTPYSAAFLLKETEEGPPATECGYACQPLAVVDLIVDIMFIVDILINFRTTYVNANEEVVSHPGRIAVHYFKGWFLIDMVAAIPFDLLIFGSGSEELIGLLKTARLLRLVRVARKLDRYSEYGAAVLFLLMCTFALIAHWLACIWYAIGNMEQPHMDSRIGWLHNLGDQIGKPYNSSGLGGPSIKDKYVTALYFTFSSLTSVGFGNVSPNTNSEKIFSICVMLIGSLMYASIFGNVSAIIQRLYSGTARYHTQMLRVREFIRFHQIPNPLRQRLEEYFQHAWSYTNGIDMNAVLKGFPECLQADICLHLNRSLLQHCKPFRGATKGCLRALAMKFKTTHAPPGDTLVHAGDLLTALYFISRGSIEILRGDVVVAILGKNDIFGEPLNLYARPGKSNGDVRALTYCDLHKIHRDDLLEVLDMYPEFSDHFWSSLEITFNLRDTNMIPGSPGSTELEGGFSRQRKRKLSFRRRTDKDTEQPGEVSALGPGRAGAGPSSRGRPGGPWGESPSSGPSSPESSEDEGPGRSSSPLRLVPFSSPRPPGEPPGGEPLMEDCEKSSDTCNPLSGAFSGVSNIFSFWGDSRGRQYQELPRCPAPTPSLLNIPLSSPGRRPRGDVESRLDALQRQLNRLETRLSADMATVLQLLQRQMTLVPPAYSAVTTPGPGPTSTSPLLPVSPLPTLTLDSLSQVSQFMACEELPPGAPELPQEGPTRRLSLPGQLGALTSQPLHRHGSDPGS

Going from `O=C(CNC(=O)c1ccccc1F)OCC(=O)N1CCCc2ccccc21` to `CC(NC(=O)CN1C(=O)COc2ccccc21)c1ccccc1` (stereo not drawn), the “hERG current change (%, negative = inhibition) at 1uM” value rises from -4.47% to 1.01%.

Going from `COc1ccc(S(=O)(=O)NC(CC(=O)N2CCC3(CC2)OCCO3)c2ccco2)cc1` (stereo not drawn) to `COc1ccc(N2CCN(c3ncnc4c3nnn4Cc3ccccc3Cl)CC2)cc1`, the “hERG current change (%, negative = inhibition) at 1uM” value falls from 10.6% to 8.15%.

First: C=CCN1C(=O)/C(=C\c2ccc(OC(=O)c3ccco3)c(OC)c2)SC1=S
Second: CCN(CC)C(=O)Cn1cc(S(=O)(=O)CC(=O)Nc2cc(OC)ccc2OC)c2ccccc21
The “hERG current change (%, negative = inhibition) at 1uM” value of the first is higher: 13.4% for the first, 7.07% for the second.

First: COc1cc(C(=O)Nc2ccc(Br)cc2C(=O)c2ccccc2Cl)cc(OC)c1OC
Second: COC(=O)c1cc(-c2ccc(NC(C)=O)cc2)nc2ccccc12
The “hERG current change (%, negative = inhibition) at 1uM” value of the first is lower: 10.5% for the first, 11.6% for the second.

First: CCOc1ccc2nc(NCCNC(=O)C(C)C)c(C)cc2c1
Second: CCOc1ccc(CCNC(=O)Cn2cccc2C(=O)c2ccccc2C)cc1OCC
The “hERG current change (%, negative = inhibition) at 1uM” value of the first is lower: -27.3% for the first, 5.18% for the second.

First: CC(C)c1ccc(NC(=O)c2cccc(NC3=NC4CS(=O)(=O)CC4S3)c2)cc1 (stereo not drawn)
Second: CC(C)/C(=N\NC(=O)Nc1ccccc1)c1ccccc1
The “hERG current change (%, negative = inhibition) at 1uM” value of the first is lower: 2.08% for the first, 7.52% for the second.

Going from `N#Cc1cccc(CSc2nnc(CCCO)n2-c2ccccc2)c1` to `CC(=O)NCCn1c(SCC(=O)NCc2ccco2)nc2ccccc2c1=O`, the “hERG current change (%, negative = inhibition) at 1uM” value falls from 10.6% to -1.64%.

Going from `c1ccc2c(c1)Nc1ccncc1S2` to `Cc1ccc(NC(=O)Nc2cccnc2)cc1NC(=O)Nc1cccnc1`, the “hERG current change (%, negative = inhibition) at 1uM” value rises from 9.27% to 13.1%.

Compared with `O=C1[C@@H]2Cc3c([nH]c4ccccc34)CN2C(=O)CN1CCO`, `Cc1ccc(CCN2CC(C(=O)NCCN(C)C)CC2=O)cc1` (stereo not drawn) is higher in “hERG current change (%, negative = inhibition) at 1uM” value: 14.2% for the first, 16.5% for the second.

Going from `CC(=O)N1c2ccc(S(=O)(=O)N3CCC(C(=O)N4CC(C)CC(C)C4)CC3)cc2CC1C` (stereo not drawn) to `CCC1CCCCN1C1Sc2ccc(C(=O)OC)cc2NC1=O` (stereo not drawn), the “hERG current change (%, negative = inhibition) at 1uM” value falls from 16.4% to -2.48%.

Going from `CN(C)c1cccc(N(C)C)c1CNC(=O)C(C)(C)C` to `CN(C)c1nc(Nc2ccc(F)cc2)nc(Oc2ccc(F)cc2)n1`, the “hERG current change (%, negative = inhibition) at 1uM” value falls from 11% to 10.1%.

Compared with `Cl.O=C(c1ccc(Cl)cc1)C(CN1CCCCC1)c1ccccc1` (stereo not drawn), `C=CCN(CC=C)S(=O)(=O)c1ccc(C(=O)Nc2nc3c(s2)CCc2ccccc2-3)cc1` is lower in “hERG current change (%, negative = inhibition) at 1uM” value: 4.97% for the first, 1.31% for the second.
